# Assay results from article PMC6919601, “Identification of Plasmodium dipeptidyl aminopeptidase allosteric inhibitors by high throughput screening” (PLoS ONE, 2019).
# Hit rate of the full screen: of about 110,000 compounds, about 230 (0.21%) showed an effect of 50% or more. The list shows a part of the results.
# Molecular target: DPAP1 (Plasmodium falciparum, UniProt Q8IIJ9)
# Assay: primary screen, percent inhibition; read by cleavage of a fluorogenic dipeptide substrate; higher = more effect of the substance
# Set-up: species or system P. falciparum D10 trophozoite lysates; single well
# 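Also: 30 min substrate incubation versus DMSO and 10 µM JCP410 controls.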
# Chain of DPAP1 (Q8IIJ9 whole entry, looked up): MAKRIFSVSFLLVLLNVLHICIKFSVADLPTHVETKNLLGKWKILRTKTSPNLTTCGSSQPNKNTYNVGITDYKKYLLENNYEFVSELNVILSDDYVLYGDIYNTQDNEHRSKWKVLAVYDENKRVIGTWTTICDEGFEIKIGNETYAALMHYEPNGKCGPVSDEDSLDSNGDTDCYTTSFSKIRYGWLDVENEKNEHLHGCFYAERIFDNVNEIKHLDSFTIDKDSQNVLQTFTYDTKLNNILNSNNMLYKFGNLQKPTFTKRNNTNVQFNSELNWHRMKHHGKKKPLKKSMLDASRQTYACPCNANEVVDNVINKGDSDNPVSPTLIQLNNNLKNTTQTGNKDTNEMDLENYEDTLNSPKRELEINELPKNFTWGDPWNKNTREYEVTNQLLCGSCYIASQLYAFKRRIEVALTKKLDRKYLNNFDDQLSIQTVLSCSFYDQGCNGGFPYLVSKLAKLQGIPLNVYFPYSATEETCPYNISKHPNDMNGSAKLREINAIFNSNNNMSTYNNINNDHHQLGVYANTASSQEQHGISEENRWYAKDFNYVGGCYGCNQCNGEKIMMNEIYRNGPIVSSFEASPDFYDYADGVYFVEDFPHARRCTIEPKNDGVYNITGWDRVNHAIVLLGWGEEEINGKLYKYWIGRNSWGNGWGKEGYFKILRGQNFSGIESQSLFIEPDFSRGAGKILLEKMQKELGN
row,Structure (SMILES),% Inhibition @ 10 uM
1,COC(=O)C1=C(C)N(Cc2cccnc2)C(=O)/C1=C\c1ccccc1OCc1ccccc1,4.32%
2,Cc1ccccc1Cc1cnc(NC(=O)C2(C)Cc3ccccc3C(=O)O2)s1 (stereo not drawn),0.747%
3,CN1CCC(NCc2ccccc2Cl)CC1,-8.55%
4,CC(C)(C)Oc1ncc(-c2ccccn2)c(OC(C)(C)C)n1,-1.04%
5,CC1CC(CCN)(c2ccccc2)C(C)CN1C (stereo not drawn),1.54%
6,CCOc1c(Cl)cc(C(=O)N(Cc2cccc(F)c2)C2CCS(=O)(=O)C2)cc1Cl (stereo not drawn),5.17%
7,COc1ccc(-c2ccc(C#N)c(SCC(=O)NC3CC3)n2)cc1OC,1.57%
8,CC1=C(C(=O)OCc2ccc(C)cc2)C(c2ccccc2C)CC(=O)N1 (stereo not drawn),-2.24%
9,O=C(NC1CCCc2ccccc21)C1CCC(CNS(=O)(=O)c2cccc3nsnc23)CC1 (stereo not drawn),-0.465%
10,Cc1ccccc1OCc1nn2c(-c3ccncc3)nnc2s1,2.89%
11,CCCO/C(O)=C1\C(C)=NC2=C(C(=O)CCC2)C1c1ccc(OCCC)c(OC)c1 (stereo not drawn),-1.03%
12,Cc1ccc(Cn2cnc3ccccc32)cc1,0.132%
13,c1ccc2c(c1)nc1n2CN(CC2CCCO2)CN1 (stereo not drawn),2.1%
14,CCCc1cc(O)n2nc(-c3ccccc3)cc2n1,-4.32%
15,COc1cccc(NS(=O)(=O)c2ccc(NC(C)=O)cc2)c1,-2.94%
16,COc1ccccc1CN1CCN(Cc2cccc(Cl)c2)CC1,-3.87%
17,O=C(O)c1cccc(C(=O)O)c1Cl,1.72%
18,CC(C)(C)c1ccc(S(=O)(=O)NCCCCCC(=O)O)cc1,15.9%
19,COC(=O)c1cc(S(=O)(=O)N(Cc2ccccc2OC)C2CCN(C)CC2)c[nH]1,-5.67%
20,Cc1cc(NC(=O)c2cc(-c3ccc(O)cc3)on2)no1,-2.65%
21,COc1ccc(C(=O)Nc2ccccc2Br)cc1OC,1.48%
22,Cc1ccc(NC(=O)COc2ccccc2C(C)C)cc1,-9.29%
23,Cc1ccc(-c2c(N3CCc4ccccc4C3)c(=O)c2=O)cc1,6.64%
24,Cc1ccccc1C(=O)Nc1nnc(C2CCCCC2)s1,-8.42%
25,COC(=O)c1c(C)nn(CCC#N)c1N,-3.53%
26,CC(=O)Nc1c(C#N)c(C)n(-c2ccc(Br)cc2)c1C(=O)c1ccccc1,-2.51%

row,Structure (SMILES),% Inhibition @ 10 uM
1,Cc1[nH]c2ccccc2c1CN1CCN(c2cccc(C(F)(F)F)c2)CC1,7.8%
2,Cc1ccc(C(=O)NC2(C(F)(F)F)C(=O)N(Cc3ccccn3)C3=C2C(=O)CC(C)(C)C3)cc1 (stereo not drawn),1.62%
3,Cc1ccc(NC(=O)C(Cc2ccc([N+](=O)[O-])cc2)N2C(=O)c3ccccc3C2=O)cc1[N+](=O)[O-] (stereo not drawn),-2.47%
4,O=C(NCCc1ccccc1)/C(=C/c1ccco1)NC(=O)c1cccc(Br)c1,-6.36%
5,CC1(C)CC2CC(C)(CN2C(=O)COc2ccc(Cl)cc2)C1 (stereo not drawn),-3.09%
6,CC1(C)C/C(=N/NC(N)=S)c2ccoc2C1,9.21%
7,COC(=O)c1ccc2oc(-c3ccc(-c4nc5cc(C(=O)OC)ccc5o4)c4ccccc34)nc2c1,1.38%
8,CCOC(=O)N1CCN(C(=O)CS(=O)(=O)Cc2nc(-c3ccc(C)cc3)oc2C)CC1,-0.138%
9,Cc1cccnc1Nc1nc(-c2ccccn2)cs1,0.0539%
10,COc1cccc2c1cc1c(=O)n(CC(=O)N3CCC4(CC3)OCCO4)nc(C)n12,3.29%
11,CCN(CC)CCN(C)Cc1ccc2ccc3cccc4ccc1c2c34,5.8%
12,CCc1ccc(N2CC(C(=O)O)CC2=O)cc1 (stereo not drawn),-2.53%
13,O=C(O)CN1C(=O)C(Cc2ccc(Cl)cc2)c2ccccc21 (stereo not drawn),1.17%
14,COc1ccccc1NC(=O)c1ccc(Cl)cc1,1.42%
15,O=C(NCCc1ccccc1)C(=O)NCC1OCCc2ccccc21 (stereo not drawn),-1.6%
16,Cc1ccc(C2C(C#N)=C(N)Oc3[nH]nc(-c4ccccc4)c32)s1 (stereo not drawn),-0.661%
17,O=C(Nc1ccc([N+](=O)[O-])cc1)c1ccco1,-4.26%
18,CCOC(=O)C1=C(CS(=O)(=O)c2ccccc2)NC(=O)NC1c1ccccc1 (stereo not drawn),-0.644%
19,COc1ccc(C(=O)C2=C(O)C(=O)N(CCN3CCOCC3)C2c2ccc(Cl)cc2)cc1OC (stereo not drawn),-5.51%
20,Cc1ccc2cc3cc(C(=O)N(C)C4CCCCC4)oc3nc2c1,-1.54%
21,Cc1nc(Oc2ccccc2)c2oc3ccccc3c2n1,-4.85%
22,Cc1ccc(S(=O)(=O)N(C)CC(=O)N2CCN(c3ccccc3F)CC2)cc1,2.37%
23,CC1=C(C(=O)c2ccccc2)C(c2ccccc2)C2=C(O)CC(C)(C)CC2=N1 (stereo not drawn),-0.105%
24,Cc1ccc2c(C)nc(NC3=NC(=O)CC(C(=O)Nc4ccc(Br)cc4)N3)nc2c1 (stereo not drawn),3.46%
25,Cc1nn(Cc2ccc(F)cc2)c(C)c1NC(=O)C1c2ccccc2Oc2ccccc21,7.04%
26,CC(C(=O)N(C1CCCCC1)C1CCCCC1)N1C(=O)c2ccccc2C1=O (stereo not drawn),-5.28%

row,Structure (SMILES),% Inhibition @ 10 uM
1,CN(C)CCNCC12CC3CC(CC(C3)C1)C2,2.45%
2,O=C(NCc1ccccc1)C1CCC(CNc2c(N3CCCC3)c(=O)c2=O)CC1 (stereo not drawn),1.22%
3,Cc1cccc(Oc2nc3ccccn3c(=O)c2/C=C(\C#N)C(=O)NC2CCCCC2)c1C,3.63%
4,CCCCCC1CCC(c2ccc(-c3ccc(OCC)cc3)nc2)CC1 (stereo not drawn),-3.67%
5,CCc1[nH]nc2c1C1(CCN(C(=O)c3ccccc3)CC1)C(C#N)=C(N)O2,2.38%
6,O=C(C1CC1c1ccccc1)N1CCCCC1 (stereo not drawn),-0.999%
7,O=C(COc1ccccc1)Nc1ncc2c(n1)CC(c1ccc(F)cc1)CC2=O (stereo not drawn),-5.2%
8,CCCCCCN1C(=O)NC(=O)/C(=C\c2ccccc2Cl)C1=O,-4.21%
9,CC(=O)Nc1c(Cl)cc(N2C(=O)c3ccc(C(=O)O)cc3C2=O)cc1Cl,8.4%
10,O=C1NN(c2ccc(Cl)c(Cl)c2)C(=O)/C1=C/c1ccccc1,3.42%
11,Cc1cc(C)nc(SCCn2c(N3CCC(C)CC3)nc3c2c(=O)[nH]c(=O)n3C)n1,2.41%
12,Cc1ccc(CC2CC(=O)N(c3nccs3)C2=O)cc1 (stereo not drawn),3.73%
13,Cc1cc(C(F)(F)F)nc(Nc2nc3ccccc3o2)n1,-4.39%
14,O=S(=O)(c1ccc(Cl)cc1)c1nc(-c2ccccc2)oc1N1CCOCC1,-6.24%
15,Cc1ccc(/C(O)=C/C=N/c2cc(C(C)(C)C)on2)cc1,-0.25%
16,O=C(c1ccco1)N(Cc1nc(-c2ccccc2)no1)C1CCCCC1,3.74%
17,Cc1ccc(C(=O)Nc2cc(C(=O)O)cc(C(=O)O)c2)cc1C,3.29%
18,CCc1nc2ccccc2c(NC(=O)CN2CCCCCC2)c1C,-1.86%
19,COc1ccc(-c2noc(CCC(=O)NCc3cc(OC)ccc3OC)n2)cc1,0.675%
20,CCO/C(O)=C1\C(C)=NC2=C(C(=O)CCC2)C1c1cccc(F)c1 (stereo not drawn),5.01%
21,CN(CCc1ccccn1)Cc1ccco1,3.48%
22,O=C(c1ccco1)N1CCC(N(CCc2ccccc2)Cc2ccccc2)CC1,-3.64%
23,OC1CSc2nc3ccccc3n21 (stereo not drawn),-1.29%
24,CCCN1CCN(c2cc(C)nc3c(-c4ccc(Cl)cc4)c(C)nn23)CC1,-2.72%
25,CC(C)(C)NCc1ccc([N+](=O)[O-])cc1,-3.58%
26,CCOC(=O)N1CCN(C/C=C/c2ccccc2)CC1,1.9%

row,Structure (SMILES),% Inhibition @ 10 uM
1,Cc1nnc(SCC(=O)NCc2ccco2)c2cc3sccc3n12,-6.25%
2,COC(=O)C1=CN(CC2CCCO2)C=C(C(=O)OC)C1c1ccc(O)c(OC)c1 (stereo not drawn),-6.95%
3,CC1=CC(C)C2C(=O)N(c3ccc(C(=O)O)cc3)C(=O)C2C1 (stereo not drawn),-3.84%
4,OC(CNC1CC1)Cn1c2ccccc2c2ccccc21 (stereo not drawn),-5.14%
5,COc1cccc(OCC(=O)Nc2cccc(C)n2)c1,2.03%
6,O=C(Nc1ccc(Cc2ccc(NC(=O)c3ccco3)cc2)cc1)c1ccco1,-5.69%
7,COc1ccccc1-c1cc(C(=O)NCc2ccco2)no1,4.5%
8,CC(C)CC(C(=O)NCC#N)n1cnc2c(Cl)nc(Cl)nc21 (stereo not drawn),1.7%
9,CN(C)c1ccc(-c2ccc3ccccc3n2)cc1,5.06%
10,O=C(NCCN1CCCC1)c1cccc(F)c1,-4.52%
11,COc1cccc(S(=O)(=O)NCc2ccc(C(=O)NCC3CCCO3)cc2)c1 (stereo not drawn),-7.22%
12,COc1ccccc1NC(=O)c1c(N)sc2c1CCC2,-2.79%
13,NC(=O)C1CCCN(C2CCSC2)C1 (stereo not drawn),-3.6%
14,O=C(NCc1ccccn1)c1nnc(Cc2ccc(Cl)cc2Cl)o1,11.5%
15,Cc1cc(C)c2nc(N3CCC(C(=O)NCCC4=CCCCC4)CC3)sc2c1,3.4%
16,Cn1c(=O)c(-c2ccccc2N)nc2cc3ccccc3cc21,-3.77%
17,Cc1ccc(C(C)C)c(OCC(=O)Nc2ccc(S(=O)(=O)Nc3cc(C)on3)cc2)c1,2.79%
18,CC1(C)Cc2c(c(N3CCOCC3)nc3sc(C(=O)N4CCCCC4)c(N)c23)CO1,3.93%
19,COc1ccc(Cl)cc1N(CC(=O)NCc1ccc(C)cc1)S(C)(=O)=O,3.17%
20,CCC(NC(=O)c1ccc(S(=O)(=O)N2CCCCC2)cc1)C12CC3CC(CC(C3)C1)C2 (stereo not drawn),-4.35%
21,CC(Oc1ccccc1)C(=O)NCc1ccccc1 (stereo not drawn),-2.65%
22,CCOC(=O)c1nnn(-c2nonc2N)c1COc1ccc2c(c1)OCO2,19.4%
23,Cc1ccc(CNC(=O)c2cc(S(=O)(=O)N3CCCCC3)c[nH]2)o1,1.46%
24,CCCCNc1nc2c(-c3cccc(C(F)(F)F)c3)nnn2c2ccccc12,-6.52%
